Reference: US4318925A (priority 1977, dated 1982)
Values after ≈ are worked out from the molar mass of the structure shown. Counter-ions that a name gives are not always drawn.

tested on: herpes simplex type I (HF strain); experiment: microbe, parasite or virus in culture; settings: 1000 TCD50, KB host cells, 72 hr at 37° C.
Experimental: Ex. 1. Effects of the compounds (I) on the growth of herpes virus in tissue cultures
Antiviral activities were determined by the tube dilution method. The cells used for the assay were KB cells.
KB cells were cultured in Eagle MEM medium. The medium was supplemented with 10% fetal calf serum.
The monolayer of cells grown in tube was exchanged to the fresh medium supplemented with 2% fetal calf serum, then 1000 TCD50 of herpes simplex type I (HF strain) and the test compound were added.
After 72 hr. incubation at 37° C. virus induced cytopathic effect (CPE) and the cytotoxicity of the compound were determined by microscopic examination.

SMILES | MIC
CCCCCCCCCCCOCC(=O)NC12CCCC3CC(CCC31)C2 (centres unmarked) [N-[3-(4-homoisotwistyl)]-2-undecyloxyacetamide] | 2.5 µg/mL (≈ 6.62 µM)
CCOCC(=O)NC12CCCC3CC(CCC31)C2 (centres unmarked) [N-[3-(4-homoisotwistyl)]-2-ethoxyacetamide] | 10 µg/mL (≈ 39.8 µM)
CCCCCOCC(=O)NC12CCCC3CC(CCC31)C2 (centres unmarked) [N-[3-(4-homoisotwistyl)]-2-pentyloxyacetamide] | 5 µg/mL (≈ 17 µM)
NC12CC3CC(CC(C3)C1)C2 [Amantadine hydrochloride, reference compound] | 50 µg/mL
CN(C)CCOCC(=O)NC12CCCC3CC(CCC31)C2 (centres unmarked) [N-[3-(4-homoisotwistyl)]-2-(2-dimethylaminoethoxy)-acetamide hydrochloride] | 50 µg/mL
